The other results are listed elsewhere or left out. Binding of human transcription factors and regulators to the viral nucleoprotein by AlphaScreen, crude cell-free proteins, amounts not normalised, one pass. Fold of the Venus control; higher = more signal. No active / inactive call. Single-pass screen; sequences are the whole Swiss-Prot entries looked up by name.
B1: LGALS9, O00182 (protein)
chain: MAFSGSQAPYLSPAVPFSGTIQGGLQDGLQITVNGTVLSSSGTRFAVNFQTGFSGNDIAFHFNPRFEDGGYVVCNTRQNGSWGPEERKTHMPFQKGMPFDLCFLVQSSDFKVMVNGILFVQYFHRVPFHRVDTISVNGSVQLSYISFQNPRTVPVQPAFSTVPFSQPVCFPPRPRGRRQKPPGVWPANPAPITQTVIHTVQSAPGQMFSTPAIPPMMYPHPAYPMPFITTILGGLYPSKSILLSGTVLPSAQRFHINLCSGNHIAFHLNPRFDENAVVRNTQIDNSWGSEERSLPRKMPFVRGQSFSVWILCEAHCLKVAVDGQHLFEYYHRLRNLPTINRLEVGGDIQLTHVQT
B2: PAX4, O43316 (protein)
chain: MHQDGISSMNQLGGLFVNGRPLPLDTRQQIVRLAVSGMRPCDISRILKVSNGCVSKILGRYYRTGVLEPKGIGGSKPRLATPPVVARIAQLKGECPALFAWEIQRQLCAEGLCTQDKTPSVSSINRVLRALQEDQGLPCTRLRSPAVLAPAVLTPHSGSETPRGTHPGTGHRNRTIFSPSQAEALEKEFQRGQYPDSVARGKLATATSLPEDTVRVWFSNRRAKWRRQEKLKWEMQLPGASQGLTVPRVAPGIISAQQSPGSVPTAALPALEPLGPSCYQLCWATAPERCLSDTPPKACLKPCWDCGSFLLPVIAPSCVDVAWPCLDASLAHHLIGGAGKATPTHFSHWP
B3: CIB1, Q99828 (protein)
chain: MGGSGSRLSKELLAEYQDLTFLTKQEILLAHRRFCELLPQEQRSVESSLRAQVPFEQILSLPELKANPFKERICRVFSTSPAKDSLSFEDFLDLLSVFSDTATPDIKSHYAFRIFDFDDDGTLNREDLSRLVNCLTGEGEDTRLSASEMKQLIDNILEESDIDRDGTINLSEFQHVISRSPDFASSFKIVL
B4: TRIM22, Q8IYM9 (protein)
chain: MDFSVKVDIEKEVTCPICLELLTEPLSLDCGHSFCQACITAKIKESVIISRGESSCPVCQTRFQPGNLRPNRHLANIVERVKEVKMSPQEGQKRDVCEHHGKKLQIFCKEDGKVICWVCELSQEHQGHQTFRINEVVKECQEKLQVALQRLIKEDQEAEKLEDDIRQERTAWKNYIQIERQKILKGFNEMRVILDNEEQRELQKLEEGEVNVLDNLAAATDQLVQQRQDASTLISDLQRRLRGSSVEMLQDVIDVMKRSESWTLKKPKSVSKKLKSVFRVPDLSGMLQVLKELTDVQYYWVDVMLNPGSATSNVAISVDQRQVKTVRTCTFKNSNPCDFSAFGVFGCQYFSSGKYYWEVDVSGKIAWILGVHSKISSLNKRKSSGFAFDPSVNYSKVYSRYRPQYGYWVIGLQNTCEYNAFEDSSSSDPKVLTLFMAVPPCRIGVFLDYEAGIVSFFNVTNHGALIYKFSGCRFSRPAYPYFNPWNCLVPMTVCPPSS

What follows are binders tested against nucleoprotein N of Crimean-Congo hemorrhagic fever virus (assay: AlphaScreen luminescence signal relative to Venus negative control (fold); higher = stronger binding to CCHFV N).
Description: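 AlphaScreen binding of cell-free made, FLAG-GST-tagged human transcription factors and regulators (crude translation products) to biotinylated N protein; signal as fold of the FLAG-GST-Venus control. One pass.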

With B1 as the binder, how does the AlphaScreen luminescence signal read?
Its AlphaScreen luminescence signal is 1.58.

B2 was tested. Which AlphaScreen luminescence signal did it give?
Its AlphaScreen luminescence signal is 2.56.

With B3 as the binder, how does the AlphaScreen luminescence signal read?
The AlphaScreen luminescence signal was 1.21.

B4 was tested. Which AlphaScreen luminescence signal did it give?
The AlphaScreen luminescence signal was 2.09.
